# The list shows a part of the results.
# Tested on: PfSIP2 AP2 domain 1 (GST-tagged)
# Experiment: gcPBM binding intensity (ln(normalized median fluorescence intensity)); higher = stronger DNA binding
# Summary of the method: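 Probes on an Agilent 4 × 180k array were primer-extended, double-stranded and 36 bp long, taken from intergenic genomic regions, with negative controls added. GST-tagged P. falciparum DNA-binding domains from E. coli, about 25 μg on average, were applied to the array for 1 h in 1× PBS containing 1% milk, 0.2 mg/ml BSA, 0.5% salmon testes DNA and 0.03% Triton X-100. Binding intensity, obtained after Alexa488 anti-GST antibody detection and a 488 nm scan, is the highest Masliner-normalised natural-log median intensity across replicate spots of either probe orientation.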
row,Sequence,gcPBM binding intensity (ln)
1,GAAAATTTATTTTTGGTGCATGTATTTATTTATTTT,9.25
2,ATTTCTAATATTTTTGCACACTAAACAATAAATTTC [CACACA_site3943],7.5
3,GTATATAATATTAGTGCACACACAAAAATGTACTAA [CACACA_site8112],10.9
4,AGTTTAATATAAAATACACACTACTCTTATAAATAT [CACACA_site6803],6.93
5,ATTTTCTTTCTATGCACACGCACGTATTTGCACCCA [CACACA_site3350],11.9
6,GAAATAATAAATTAAAAATCGTTTATAACATTTAAC [CACACA_negctrl_site425],6.65
7,CTTTTTTTTTGATGTTGTACATATATATTATATAAT [XGTACX_site1321],7.16
8,AGTAATATAATATAAGCACACGTGTATTTATTTAGT [CACACA_site4246],7.09
9,TGGGAGCACAGACACACACACACACCCATATATATA [CACACA_site335],7.65
10,TACAAAATAAAAATAATTCTTTCAAAAAATAATAAA [XGTACX_negctrl_site368],6.78
11,TGCACATTTATGTAACGTACAAAATATAATATGTTA [XGTACX_site8255],7.07
12,TCCTTATATTGGCACACACACACAATAAAATGAAAA [CACACA_site4715],7.77
13,GGTTGCTTCAGTGAATGTACATAGTGGTAAACAAGC [XGTACX_site166],7.5
14,GTATAAAAGTAATGTAGTACTTATATATTTTTATTT [XGTACX_site8975],6.98
15,AACATAAGTAAGAATACATGCGGAAATTATATAGAA [TGCATGCA_site112],7.05
16,TATAAATTTAAAATGACACACACTAAAGTTATTTAA [CACACA_site6700],6.77
17,TAAATATTATAAATGATACACACTTAAAATACTCAC [CACACA_site2710],6.75
18,TCCCTTAAAATGATATGTACATAAAAATAAAAAAAA [XGTACX_site836],7.36
19,TATATATTTGTTCACACACACACAAAAAAAAAAAAA [CACACA_site2475],7.25
20,TAAGGACTAATATTTGAACACACATATAATATATAC [CACACA_site9325],6.86
21,CATATATATATATATATATATATATTTATTTATTTA [TGCATGCA_negctrl_site165],8.11
22,GTCATCAAGTATTAAGTGCATTAAAAATAAAATATA,9.02

row,Sequence,gcPBM binding intensity (ln)
1,TTAAAAGAAAATAACACACACAAAAAAAAAAAAAAA [CACACA_site2117],6.75
2,TTTTGTTTTAAAAGTACACACTTTTAATTAGATTTC [CACACA_site4788],6.86
3,AAAATACACAACATATATATATATATATATATATAT [XGTACX_negctrl_site21],9.49
4,TGATCAATGGATTTAACACACAAAAAAAAAAAAAAA [CACACA_site3845],6.75
5,ATTTATTTTTTACATTGTACATATTTATTCCTTTTA [XGTACX_site8028],7.05
6,TATAACATTTTTTTCAAAATAGCTTTAGAAATAAAG [CACACA_negctrl_site718],6.6
7,TTATTTTCAAAATGTTGTACACACAAAAAAAAAAAA [XGTACX_site3151],7.73
8,TTTTTTTTTTTTTTTGCATGCAGGTTTTTACCCCTT [TGCATGCA_site381],6.88
9,TTTTTTTTCTTCAAGCGTACTTATTTGTAGAAAAAA [XGTACX_site1728],6.9
10,ATATGTGGAAATAGAGCACACATATATATAATATAT [CACACA_site8194],7.17
11,TATGTATATATATAAAGTACGCAAATTTATAATAAG [XGTACX_site8744],7.34
12,ACTAACATATATTCAACACACATATACCTTCAACCC [CACACA_site3011],7.15
13,TATATATATATATACACACACACATATATATATATA [CACACA_site774],9.6
14,CCCATTTAATATTGAGTGCATTTAAATAAATGTATT,8.98
15,TTTTACAAAGTATGATGTACAAGTATATATAAATAT [XGTACX_site2072],7.21
16,TACATGAATAAACTTACACACACCCATGCATACATA [CACACA_site97],7.02
17,TGAAAAGGAAAATTTTGTACATATACATCAAGGATA [XGTACX_site656],6.73
18,ACTTTTTATTTTTTACTATATATATATATATATATG [TGCATGCA_negctrl_site463],7.8
19,AAAAAAAAGAATTTACGTACTTATTATTTATATTTT [XGTACX_site5701],6.88
20,TAATTAAAAAATAAAAAAAAAAAAAATTAAAACAAA [CACACA_negctrl_site500],6.65
21,TGCTAATAATTATTTGTTTAGCAACAAAAAAAAAAA [CACACA_negctrl_site1541],6.9
22,TTCTTTTTAATTTATTTTTTCTTATAACAAGAAAAC [CACACA_negctrl_site201],7.17

# — the supplement of paper PMC11417369
